Among all 310,000 compounds or so, about 2,200 (0.71%) showed an effect of 50% or more. Effects have a minus sign here. The list shows a part of the results.
target: human ether-à-go-go-related gene (hERG) potassium channel (human, UniProt Q12809); assay: primary screen, population patch clamp on CHO cells stably expressing hERG
Sequence (Q12809 whole entry, looked up): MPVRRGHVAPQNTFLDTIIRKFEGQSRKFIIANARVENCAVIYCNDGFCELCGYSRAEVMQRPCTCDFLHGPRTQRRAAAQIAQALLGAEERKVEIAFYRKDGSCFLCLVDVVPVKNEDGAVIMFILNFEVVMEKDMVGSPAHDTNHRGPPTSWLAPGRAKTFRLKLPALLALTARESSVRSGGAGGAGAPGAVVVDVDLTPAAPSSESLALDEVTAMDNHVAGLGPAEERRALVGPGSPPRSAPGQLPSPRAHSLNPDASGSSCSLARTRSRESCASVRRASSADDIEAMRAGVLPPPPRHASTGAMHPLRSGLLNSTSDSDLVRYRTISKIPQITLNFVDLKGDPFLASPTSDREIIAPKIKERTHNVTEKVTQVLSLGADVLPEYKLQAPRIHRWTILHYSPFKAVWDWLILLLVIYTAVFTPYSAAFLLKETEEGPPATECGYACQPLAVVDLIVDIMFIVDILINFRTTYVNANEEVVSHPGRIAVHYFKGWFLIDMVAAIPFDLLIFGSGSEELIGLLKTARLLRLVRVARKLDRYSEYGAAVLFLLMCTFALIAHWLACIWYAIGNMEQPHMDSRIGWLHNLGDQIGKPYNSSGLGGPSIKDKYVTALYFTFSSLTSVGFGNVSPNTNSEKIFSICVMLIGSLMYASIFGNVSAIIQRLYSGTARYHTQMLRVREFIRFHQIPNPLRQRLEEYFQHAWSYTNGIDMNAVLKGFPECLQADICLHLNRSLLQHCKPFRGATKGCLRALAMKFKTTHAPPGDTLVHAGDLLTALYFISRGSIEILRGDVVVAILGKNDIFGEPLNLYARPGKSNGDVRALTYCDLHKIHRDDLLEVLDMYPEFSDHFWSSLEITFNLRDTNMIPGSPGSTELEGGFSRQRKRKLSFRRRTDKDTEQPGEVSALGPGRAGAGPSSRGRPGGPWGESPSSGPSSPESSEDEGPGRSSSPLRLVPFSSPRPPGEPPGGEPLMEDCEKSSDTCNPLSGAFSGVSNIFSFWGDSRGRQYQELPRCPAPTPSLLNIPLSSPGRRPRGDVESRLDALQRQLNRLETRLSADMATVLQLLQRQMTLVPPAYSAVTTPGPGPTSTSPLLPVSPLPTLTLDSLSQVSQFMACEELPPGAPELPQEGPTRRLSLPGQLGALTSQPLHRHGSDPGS

| SMILES | hERG current change (%, negative = inhibition) at 1uM |
| --- | --- |
| CCOC(=O)c1c(C)[nH]c(C(=O)COC(=O)c2cnc(C)cn2)c1C | 0.153% |
| O=C(O)CC(NC(=O)COc1ccccc1)c1cccc([N+](=O)[O-])c1 (stereo not shown) | 6.58% |
| CC(=O)c1ccc(-c2nnc(CCC(=O)N3CCCC(C(=O)CC(C)C)C3)o2)s1 (stereo not shown) | 4.6% |
| O=S(=O)(NCc1ccco1)c1cccc2cccnc12 | 6.6% |
| O=C(OCCN1C(=O)c2ccccc2C1=O)c1ccc(S(=O)(=O)N2CCCCCC2)cc1 | -0.0351% |
| CC1(C)CC(=O)C=C(Nc2ccccc2C#N)C1.Cl | 17.7% |
| O=C(N=C1N=C2C=CC(Br)=CN2Cc2ccccc21)c1ccc([N+](=O)[O-])cc1[N+](=O)[O-] | 6.29% |
| Cc1ccc(N2C(=O)NC(=O)/C(=C\c3ccoc3)C2=O)cc1 | 17% |
| O=C(N/N=C/c1ccoc1)c1cc(O)cc(O)c1 | 13.8% |
| CCN(CCCNC(=O)C1CCC(=O)N1Cc1ccc(C)cc1)c1cccc(C)c1 (stereo not shown) | 3.57% |
| COc1ccc(-c2nn(-c3ccccc3)cc2C(=O)O)cc1N | 6.23% |
| COc1cc(C)c(NC(=S)Nc2cccc(Cl)c2C)cc1OC | 13.3% |
| Cn1c(CCN2CCOCC2)nc2cc(NC(=O)COc3ccccc3)ccc21 | 2.19% |
| Cc1ccccc1NC(=S)NCc1ccc(F)cc1 | 11% |
| CCCn1c(=N)c(C#N)cc2c(=O)n3ccccc3nc21 | 6.15% |
| CCOC(=O)N/N=C/c1ccc(F)cc1 | 12.4% |
| O=C(CCc1nnc(Cc2ccc(-c3ccccc3)cc2)o1)NCCc1cccnc1 | 5.17% |
| Cc1c(Cl)c(=O)oc2cc(OCC(=O)NCc3cccs3)ccc12 | 5.12% |
| COc1ccc(C2CC(c3ccc(Br)cc3)Nc3nc(N)nn32)cc1 (stereo not shown) | -12.4% |
| COc1ccc(N2CCN(S(=O)(=O)c3ccc(Cl)s3)CC2)cc1 | 16% |
| O=C(CCC(=O)N1CCC2(CC1)OCCO2)Nc1nnc(C2CCCCC2)s1 | 17.7% |
| COc1cccc(N=Nc2ccc3ccccc3c2O)c1 | 21.5% |
| Cc1cccc2cc(/C=C/C(=O)c3ccco3)c(Cl)nc12 | 10.2% |
| Cn1c(SCC(=O)NC2CCCCC2)nnc1-c1ccccn1 | 5.73% |
| CN(C)c1ccc(C(CNC(=O)c2ccc(C#N)cc2)c2c[nH]c3ccccc23)cc1 (stereo not shown) | 6.97% |

Reference: publication PMC4336329 (PLoS ONE, 2015)
